Assay results from the supplement of paper PMC4967469.
A lower IC50 marks a more sensitive line; fits outside the tested doses are given as limits. AUC, from the same fit, is the share of area under the viability curve across the 256-fold dose range; the more sensitive the line, the further below 1. The top dose, if marked as inferred, was calculated from the reported fits. For some of these results: An entry number marks a drug with two screens in the source, which often give different values.

Legend:
Assay in all cases: Viability of human cancer cell lines after 72 h of drug (GDSC screen)
SB 216763 = compound: Cn1cc(C2=C(c3ccc(Cl)cc3Cl)C(=O)NC2=O)c2ccccc21 [SB 216763]; settings: top dose 10 µM; top dose inferred
Experimental: (§1)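 Human cancer cell lines in 384-well plates, medium with 10% serum, drug for 72 h over a 256-fold dose range (nine 2-fold or five 4-fold steps up to the top dose). Adherent lines were fixed and stained with the nucleic acid dye Syto60, suspension lines read with resazurin; signal relative to control wells, capped at 0 and 100%. One two-parameter sigmoid per drug and line, fitted in a mixed model over all curves with the slope shared within a line.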

GDC0941 = compound: CS(=O)(=O)N1CCN(Cc2cc3nc(-c4cccc5[nH]ncc45)nc(N4CCOCC4)c3s2)CC1 [GDC0941]; settings: top dose 4 µM; screen: GDSC drug entry 1527; top dose inferred
Experimental: as §1

CEP-701 = compound: C[C@]12O[C@H](C[C@]1(O)CO)n1c3ccccc3c3c4c(c5c6ccccc6n2c5c31)CNC4=O [CEP-701]; settings: top dose 2 µM; top dose inferred
Experimental: as §1

AR-42 = compound: CC(C)[C@H](C(=O)Nc1ccc(C(=O)NO)cc1)c1ccccc1 [AR-42]; settings: top dose 5.12 µM; top dose inferred
Experimental: as §1

| Cell Line | AUC (SB 216763) | IC50 (SB 216763) [nM] | AUC (GDC0941) | IC50 (GDC0941) [nM] | AUC (CEP-701) | IC50 (CEP-701) [nM] | AUC (AR-42) | IC50 (AR-42) [nM] |
| --- | --- | --- | --- | --- | --- | --- | --- | --- |
| MKN7 (stomach, adherent) | 0.928 | > 10000 | 0.821 | 3460 | 0.798 | 1360 | – | – |
| MM1S (myeloma, suspension) | 0.958 | > 10000 | – | – | 0.606 | 240 | – | – |
| MOLM-16 (acute myeloid leukaemia, suspension) | 0.888 | 8930 | 0.445 | 181 | 0.086 | < 7.81 | – | – |
| MOLT-16 (T-cell lymphoblastic leukaemia, suspension) | 0.992 | > 10000 | 0.796 | 1460 | 0.269 | 32.5 | – | – |
| NCI-H146 (small cell lung carcinoma, suspension) | 0.995 | > 10000 | 0.991 | > 4000 | 0.958 | > 2000 | – | – |
| NCI-H508 (large intestine, semi-adherent) | 0.954 | > 10000 | 0.661 | 953 | 0.78 | 1530 | – | – |
| NCI-H630 (large intestine, adherent) | 0.968 | > 10000 | 0.851 | 3410 | 0.832 | 1410 | 0.643 | 822 |
| NCI-H835 (lung carcinoid, suspension) | 0.989 | > 10000 | 0.91 | > 4000 | 0.924 | > 2000 | – | – |
| NCI-H929 (myeloma, suspension) | 0.991 | > 10000 | – | – | 0.521 | 142 | – | – |
| NCI-H1105 (small cell lung carcinoma, suspension) | 0.989 | > 10000 | 0.968 | > 4000 | 0.744 | 534 | – | – |
| NCI-H1341 (small cell lung carcinoma, suspension) | 0.962 | > 10000 | 0.524 | 287 | 0.666 | 334 | – | – |
| NCI-H2172 (non-small cell lung carcinoma, adherent) | 0.982 | > 10000 | 0.905 | > 4000 | 0.946 | > 2000 | 0.721 | 1720 |
| NCI-N87 (stomach, adherent) | 0.931 | > 10000 | 0.587 | 482 | 0.891 | > 2000 | – | – |
| OACM5-1 (oesophagus, semi-adherent) | 0.982 | > 10000 | 0.868 | > 4000 | 0.984 | > 2000 | 0.517 | 359 |
| OACp4C (oesophagus, adherent) | 0.982 | > 10000 | 0.733 | 1340 | 0.641 | 334 | 0.298 | 76 |
| OC-314 (ovary, adherent) | 0.971 | > 10000 | 0.722 | 953 | 0.75 | 575 | 0.532 | 387 |
| OCI-LY7 (B-cell lymphoma, suspension) | 0.98 | > 10000 | – | – | 0.148 | 17 | – | – |
